Measured values reported in PubChem BioAssay AID485364 (National Center for Advancing Translational Sciences (NCATS), 2010).
Screen size: about 360,000 compounds; about 11,000 (3.1%) were called active. The shares of active, inactive and inconclusive entries below differ from those in the screen. The call rests on the fitted dose curve; in most records, active means well fitted inhibition curve with a large enough effect; inconclusive means small, poorly fitted or top-dose-only effect; inactive means no such curve, though single readings can be large or run the other way. No potency is given beside an inconclusive call; the fits are too rough.

target: Schistosoma mansoni thioredoxin glutathione reductase (TGR) (UniProt Q962Y6); experiment: qHTS Assay for the Inhibitors of Schistosoma Mansoni Peroxiredoxins; conditions: purified TGR, DTNB reduction, TNB absorbance 405 nm; activity change, negative = inhibition: at 114 µM (top of the series) unless noted; further: nearly all actives have a fitted effect of over 60% in size
Method in brief: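 First, TGR (20 nM dispensed) and NADPH were mixed with compound. Second, a 15 min room-temperature incubation followed. Third, further NADPH and then DTNB were added to start the reaction. Finally, TNB absorbance was monitored kinetically.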
On the % scale 0 is the no-effect control and ±100 the full control effect; potency means the concentration at half of the fitted maximal effect; tags describe the fitted curve by direction and shape.

SMILES | Potency | activity change, negative = inhibition
Cc1nc2ccccc2nc1CN1CCC(CO)(CC2CCCCO2)CC1 (stereo unspecified) | inconclusive [inhibitor, partial curve] | –
O=C1OC(c2ccccc2)=N/C1=C\C=C\c1ccco1 | inconclusive [inhibitor, partial curve] | –
COc1ccc(NS(=O)(=O)c2ccc(NC(=O)N3CCCC3)cc2)cc1 | inconclusive [inhibitor, single point] | –
Cc1cccc(-c2oc3ccccc3c2C#CCCO)c1 | active: 15.8 µM | –
COc1ccc(C(=O)Nc2cccc(/C(C)=N/NC(=O)c3ccc([N+](=O)[O-])c(C)c3)c2)cc1OC | inconclusive [inhibitor, full curve, poor fit] | –
COc1ccccc1C(=O)N1CCN(c2nc3cc(C)c(C)cc3cc2C#N)CC1 | – | inactive: 2.13%
NC(=O)N1CCN(C(=O)c2ccco2)CC1 | inconclusive [inhibitor, full curve] | –
COc1ccc(/C(C)=N/Nc2nncc3ccccc23)cc1 | – | inactive: 29.4%
CC(=O)N(/N=C/c1ccc(C)cc1)c1nc(CCl)cs1 | inconclusive [inhibitor, partial curve] | –
COc1ccc(CCNC(=O)CC(c2ccccc2)c2cc(C)ccc2O)cc1OC (stereo unspecified) | – | inactive: -8.46%
CC(=O)c1ccc(N2CCN(S(=O)(=O)c3cccc4nonc34)CC2)cc1 | inconclusive [inhibitor, full curve] | –
O=C(CCS(=O)(=O)Cc1ccccc1)Nc1nncs1 | inconclusive [inhibitor, partial curve] | –
Cc1ccc2c(c1)c1c(c(=O)n(-c3ccccc3C)c(=O)n1CC(=O)NCCC1=CCCCC1)n2C | – | inactive: -3.56%
Cc1ccc(OCC(=O)Nc2c3c(nn2C(C)(C)C)CS(=O)(=O)C3)cc1 | inconclusive [inhibitor, partial curve, poor fit] | –
COc1ccc(-c2nc(CSCC(=O)NC3CCN(Cc4ccccc4)CC3)c(C)o2)cc1OC | – | inactive: -13.8%
COc1ccc(C2=NN(C(=O)c3ccccc3)C(c3ccc(OC)c(OC)c3)C2)c(O)c1 (stereo unspecified) | – | inactive: 4.76%
COc1cccc(CN2CCNC(=O)C2CC(=O)N(C)CC2CCOCC2)c1 (stereo unspecified) | inconclusive [inhibitor, partial curve, poor fit] | –
Cc1ccc(/C=C/C(=O)OCC(=O)N2CC(=O)Nc3ccccc32)o1 | inconclusive [inhibitor, partial curve] | –
O=S(=O)(c1ccccc1)N1CCC(c2ccncc2)CC1 | – | inactive: 1.43%
C=CCN(Cc1nc(-c2ccccc2)no1)C(=O)c1ccoc1C | inconclusive [inhibitor, partial curve, poor fit] | –
COCCn1c(SCC(=O)Nc2ccc(NC(=O)c3ccco3)c(OC)c2)nc2ccccc2c1=O | – | inactive: -16%
CCCCSc1nc(NCc2ccco2)c2c3c(sc2n1)COC(C)(C)C3 | inconclusive [inhibitor, partial curve] | –
O=C(CSc1ccccc1)NCc1ccc2c(c1)CCN2C(=O)c1ccc(F)cc1 | – | inactive: -6.96%

SMILES | Potency | activity change, negative = inhibition
Cc1ccc(S(=O)(=O)N(CC(=O)O)Cc2ccco2)cc1 | inconclusive [inhibitor, full curve] | –
CCCc1cc(C(=O)NC2CCCC2)no1 | – | inactive: 0.896%
COCCCNC(=S)Nc1ccc(C)cc1[N+](=O)[O-] | active: 44.7 µM | –
CCCN(CCC)S(=O)(=O)c1ccc(Cl)c([N+](=O)[O-])c1 | inconclusive [inhibitor, partial curve] | –
O=S(=O)(Nc1nc2ccccc2nc1NCc1ccco1)c1ccc(Cl)cc1 | – | inactive: 0%
O=C1CCN(CCc2ccccc2)CCN1[C@H](CSc1ccc(Br)cc1)c1ccccc1 | inconclusive [inhibitor, full curve] | –
O=C(Nc1cccnc1)c1cc(-c2ccco2)on1 | inconclusive [inhibitor, single point] | –
Cc1ccc(C(=O)c2c(C)oc3c2C(=O)C(=O)c2ccccc2-3)cc1 | inconclusive [inhibitor, partial curve] | –
C=CCOc1c(Br)cc(/C=C2/C(=O)ON=C2C)cc1OC | inconclusive [inhibitor, partial curve] | –
COc1ccc2c(c1)CCc1sc(NC(=O)c3ccc(Cl)cc3)nc1-2 | inconclusive [inhibitor, partial curve] | –
CCOC(=O)CSC1=C(C#N)C(c2ccco2)C(C(=O)Nc2cccc(C(F)(F)F)c2)=C(C)N1 (stereo unspecified) | inconclusive [inhibitor, partial curve] | –
CCN(CC)CCN1C(=O)C(=O)/C(=C(/O)c2c(C)[nH]c(C(=O)OC)c2C)C1c1ccccc1OC (stereo unspecified) | inconclusive [inhibitor, full curve] | –
Cc1ccc(C(=O)c2coc3cc([N+](=O)[O-])c(O)c([N+](=O)[O-])c23)cc1 | active: 50.1 µM | –
Cc1[nH]c2ccccc2c1C(c1ccncc1)N1CCCCC1 (stereo unspecified) | active: 1.78 µM | –
O=C(Oc1ccc([N+](=O)[O-])cc1)c1cncc(Br)c1 | active: 17.8 µM | –
CC(C)(C)c1ccc(NC(=O)C(=O)C2C(=O)Nc3ccccc32)cc1 (stereo unspecified) | – | inactive: -9.4%
Cc1nn(-c2ccc(Cl)cc2)c2sc(C(=O)N3CCN(C(=O)c4ccco4)CC3)cc12 | – | inactive: 1.57%
Cc1nc(NC(=O)C2CC2)sc1C(=O)N1CCCCC1 | inconclusive [inhibitor, single point] | –
Cc1occc1-c1nnc(SCC(=O)NCC2CCCO2)n1C (stereo unspecified) | inconclusive [inhibitor, partial curve] | –
CSc1nc(-c2ccco2)cc(-c2ccccc2)c1C#N | inconclusive [inhibitor, partial curve] | –
CN(C)c1ccc(-c2ccc3c(=O)c4ccccc4n(C)c3c2)cn1 | inconclusive [inhibitor, partial curve] | –
O=[N+]([O-])c1ccc(N=NNc2ccccc2)cc1 | inconclusive [inhibitor, single point] | –
COc1ccc(C(C[N+](=O)[O-])c2c(-c3ccccc3)cc3ccccn23)cc1OC (stereo unspecified) | active: 7.94 µM | –
